According to the supplement of paper PMC8728848:
Some of the results follow.

Legend:
Test in all cases: glycan array binding signal (z-score within array); higher = stronger binding
Conditions in all cases: glycan notation: IUPAC condensed, linker removed
[1] = target: Neu5Ac(a2-3)Gal(b1-4)GlcNAc(b1-2)[Neu5Ac(a2-3)Gal(b1-4)GlcNAc(b1-4)]Man(a1-3)[GlcNAc(b1-4)][Neu5Ac(a2-3)Gal(b1-4)GlcNAc(b1-4)Man(a1-6)]Man(b1-4)GlcNAc(b1-4)GlcNAc
Outline: (§1)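 From the Consortium for Functional Glycomics database, 3228 arrays were curated, keeping only those whose protein sequence was available. Binding is given as a within-array Z-score averaged across arrays sharing a protein sequence and across linkers. Negative Z-scores can be read as non-binding.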

[2] = target: Neu5Ac(a2-3)Gal(b1-4)GlcNAc(b1-2)[Neu5Ac(a2-3)Gal(b1-4)GlcNAc(b1-6)]Man(a1-6)[Neu5Ac(a2-3)Gal(b1-4)GlcNAc(b1-2)Man(a1-3)]Man(b1-4)GlcNAc(b1-4)GlcNAc
Outline: as §1

[3] = target: Neu5Ac(a2-3)Gal(b1-4)GlcNAc(b1-2)[Neu5Ac(a2-3)Gal(b1-4)GlcNAc(b1-6)]Man(a1-6)[Neu5Ac(a2-3)Gal(b1-4)GlcNAc(b1-2)Man(a1-3)][GlcNAc(b1-4)]Man(b1-4)GlcNAc(b1-4)GlcNAc
Outline: as §1

[4] = target: Neu5Ac(a2-3)Gal(b1-4)GlcNAc(b1-3)Gal
Outline: as §1

[5] = target: Neu5Ac(a2-3)Gal(b1-4)GlcNAc(b1-3)Gal(b1-3)GlcNAc
Outline: as §1

[6] = target: Neu5Ac(a2-3)Gal(b1-4)GlcNAc(b1-3)Gal(b1-4)GlcNAc
Outline: as §1

[7] = target: Neu5Ac(a2-3)Gal(b1-4)GlcNAc(b1-3)Gal(b1-4)GlcNAc(b1-2)Man(a1-3)[Neu5Ac(a2-3)Gal(b1-4)GlcNAc(b1-3)Gal(b1-4)GlcNAc(b1-2)Man(a1-6)]Man(b1-4)GlcNAc(b1-4)GlcNAc
Outline: as §1

[8] = target: Neu5Ac(a2-3)Gal(b1-4)GlcNAc(b1-3)Gal(b1-4)GlcNAc(b1-3)Gal(b1-4)GlcNAc
Outline: as §1

[9] = target: Neu5Ac(a2-3)Gal(b1-4)GlcNAc(b1-3)Gal(b1-4)GlcNAc(b1-3)Gal(b1-4)GlcNAc(b1-2)Man(a1-3)[Neu5Ac(a2-3)Gal(b1-4)GlcNAc(b1-3)Gal(b1-4)GlcNAc(b1-3)Gal(b1-4)GlcNAc(b1-2)Man(a1-6)]GalNAc
Outline: as §1

[10] = target: Neu5Ac(a2-3)Gal(b1-4)GlcNAc(b1-3)Gal(b1-4)GlcNAc(b1-3)GalNAc
Outline: as §1

[11] = target: Neu5Ac(a2-3)Gal(b1-4)GlcNAc(b1-3)Gal(b1-4)GlcNAc(b1-3)[Neu5Ac(a2-3)Gal(b1-4)GlcNAc(b1-3)Gal(b1-4)GlcNAc(b1-6)]GalNAc
Outline: as §1

[12] = target: Neu5Ac(a2-3)Gal(b1-4)GlcNAc(b1-3)Gal(b1-4)GlcNAc(b1-6)[Gal(b1-3)]GalNAc
Outline: as §1

[13] = target: Neu5Ac(a2-3)Gal(b1-4)GlcNAc(b1-3)Gal(b1-4)[Fuc(a1-3)]GlcNAc
Outline: as §1

[14] = target: Neu5Ac(a2-3)Gal(b1-4)GlcNAc(b1-3)GalNAc
Outline: as §1

[15] = target: Neu5Ac(a2-3)Gal(b1-4)GlcNAc(b1-3)[Neu5Ac(a2-3)Gal(b1-4)GlcNAc(b1-6)]GalNAc
Outline: as §1

[16] = target: Neu5Ac(a2-3)Gal(b1-4)GlcNAc(b1-6)GalNAc
Outline: as §1

[17] = target: Neu5Ac(a2-3)Gal(b1-4)GlcNAc(b1-6)[Gal(b1-3)]GalNAc
Outline: as §1

[18] = target: Neu5Ac(a2-3)Gal(b1-4)GlcNAc(b1-6)[Neu5Ac(a2-3)Gal(b1-3)]GalNAc
Outline: as §1

[19] = target: Neu5Ac(a2-3)Gal(b1-4)GlcNAc6S
Outline: as §1

[20] = target: Neu5Ac(a2-3)Gal(b1-4)[Fuc(a1-3)]GlcNAc
Outline: as §1

[21] = target: Neu5Ac(a2-3)Gal(b1-4)[Fuc(a1-3)]GlcNAc(b1-2)Man
Outline: as §1

[22] = target: Neu5Ac(a2-3)Gal(b1-4)[Fuc(a1-3)]GlcNAc(b1-3)Gal
Outline: as §1

[23] = target: Neu5Ac(a2-3)Gal(b1-4)[Fuc(a1-3)]GlcNAc(b1-3)Gal(b1-4)GlcNAc
Outline: as §1

[24] = target: Neu5Ac(a2-3)Gal(b1-4)[Fuc(a1-3)]GlcNAc(b1-3)Gal(b1-4)[Fuc(a1-3)]GlcNAc(b1-3)Gal(b1-4)[Fuc(a1-3)]GlcNAc
Outline: as §1

[25] = target: Neu5Ac(a2-3)Gal(b1-4)[Fuc(a1-3)]GlcNAc(b1-3)GalNAc
Outline: as §1

[26] = target: Neu5Ac(a2-3)Gal(b1-4)[Fuc(a1-3)]GlcNAc(b1-6)[Gal(b1-3)]GalNAc
Outline: as §1

[27] = target: Neu5Ac(a2-3)Gal(b1-4)[Fuc(a1-3)]GlcNAc(b1-6)[Neu5Ac(a2-3)Gal(b1-3)]GalNAc
Outline: as §1

[28] = target: Neu5Ac(a2-3)Gal(b1-4)[Fuc(a1-3)]GlcNAc6S
Outline: as §1

[29] = target: Neu5Ac(a2-3)Gal6S(b1-4)GlcNAc
Outline: as §1

[30] = target: Neu5Ac(a2-3)Gal6S(b1-4)[Fuc(a1-3)]GlcNAc
Outline: as §1

Neu5Ac(a2-3)GalNAc = target: Neu5Ac(a2-3)GalNAc
Outline: as §1

[31] = target: Neu5Ac(a2-3)GalNAc(b1-4)GlcNAc
Outline: as §1

[32] = target: Neu5Ac(a2-3)[GalNAc(b1-4)]Gal(b1-4)Glc
Outline: as §1

[33] = target: Neu5Ac(a2-3)[GalNAc(b1-4)]Gal(b1-4)GlcNAc
Outline: as §1

[34] = target: Neu5Ac(a2-3)[GalNAc(b1-4)]Gal(b1-4)GlcNAc(b1-3)GalNAc
Outline: as §1

[35] = target: Neu5Ac(a2-3)[Neu5Ac(a2-6)]GalNAc
Outline: as §1

Neu5Ac(a2-6)Gal = target: Neu5Ac(a2-6)Gal
Outline: as §1

B1: GS7807H-bfa-490-18-490 (Bacteroides fragilis) (protein)
chain: GNLEEMNIDPDNATQTHPKLLLTQICMNAFKRGTDGMYATKKVIQADGESADQYYKWTRGSFGYYDNLRNVQKMGEEAERVNAPVYTALTKFFRAYYFYELTLRFGDIPYSQALKGEKEEIYTPEYDAQEDVFAGILQELREADEILANDASVIDGDIIYNGNSTQWRKLINSFRLKVLMTLSNHTTVGNINIASEFKNIATNSPLMNSLADNGQLVYLDQQGNRYPQFNAQWSGYYMDDTFIQRMRERRDPRLFIFSAQTNKGKTEGKPIDDFSSYEGGDPAAPYSDAIIKVSEGTISPINDRFRTDPIVEPTMLMGYAELQQILAEAVVRGWISGNAQTYYEKGIRASFSFYETHAKDYAGYLNENAVAQYLKEPLVDFTQASGTEEQIERIIMQKYLVTFYQGNWDSFYEQLRTGYPDFRRPAGTEIPKRWMYPQGEYDNNGTNVETAITRQFGAGNDKINQATWWQKKS
[1]
  glycan array binding signal (z-score): -0.302
[2]
  glycan array binding signal (z-score): 0.482
[3]
  glycan array binding signal (z-score): 0.115
[4]
  glycan array binding signal (z-score): 0.517
[5]
  glycan array binding signal (z-score): -0.423
[6]
  glycan array binding signal (z-score): -0.498
[7]
  glycan array binding signal (z-score): 1.09
[8]
  glycan array binding signal (z-score): 0.175
[9]
  glycan array binding signal (z-score): 9.02
[10]
  glycan array binding signal (z-score): -0.386
[11]
  glycan array binding signal (z-score): 0.655
[12]
  glycan array binding signal (z-score): -0.551
[13]
  glycan array binding signal (z-score): -0.682
[14]
  glycan array binding signal (z-score): -0.583
[15]
  glycan array binding signal (z-score): -0.793
[16]
  glycan array binding signal (z-score): -0.497
[17]
  glycan array binding signal (z-score): -0.693
[18]
  glycan array binding signal (z-score): -0.804
[19]
  glycan array binding signal (z-score): -0.051
[20]
  glycan array binding signal (z-score): -0.511
[21]
  glycan array binding signal (z-score): -0.282
[22]
  glycan array binding signal (z-score): 0.009
[23]
  glycan array binding signal (z-score): 0.422
[24]
  glycan array binding signal (z-score): -0.314
[25]
  glycan array binding signal (z-score): 5.66
[26]
  glycan array binding signal (z-score): 0.01
[27]
  glycan array binding signal (z-score): 0.488
[28]
  glycan array binding signal (z-score): 0.272
[29]
  glycan array binding signal (z-score): -0.649
[30]
  glycan array binding signal (z-score): -0.29
Neu5Ac(a2-3)GalNAc
  glycan array binding signal (z-score): 0.279
[31]
  glycan array binding signal (z-score): -0.486
[32]
  glycan array binding signal (z-score): -0.665
[33]
  glycan array binding signal (z-score): -0.535
[34]
  glycan array binding signal (z-score): -0.159
[35]
  glycan array binding signal (z-score): 0.163
Neu5Ac(a2-6)Gal
  glycan array binding signal (z-score): -0.384
